# Data taken from the supplement of paper PMC3334620.
# Over roughly 33,000 sequences, “E-score (-0.5 to 0.5)” has its median near -0.01; the highest 2% begin near 0.26. The list shows a part of the results.
# Biological target: Ste12 (UniProt P13574)
# Test: PBM E-score (8-mer binding enrichment) (E-score (-0.5 to 0.5)); higher = stronger / more preferred TF binding; most listed sequences are background and not binding sites
# Conditions: protein concentration: 200 nM; construct: GST-DNA-binding domain
# Method: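 Universal 'all 10-mer' protein binding microarrays (Agilent AMADID 015681) probed with GST-tagged S. cerevisiae TFs (full-length or DBD) made by in vitro transcription/translation (PURExpress), about 100-200 nM. Bound TF was detected with fluorescent anti-GST. Each ungapped 8-mer (which stands for itself and its reverse complement) is scored by the PBM enrichment score (E-score), a modified Wilcoxon-Mann-Whitney statistic from -0.5 to +0.5, computed with the Universal PBM Analysis Suite. Scale: above 0.35 generally sequence-specific binding.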
row,Sequence,PBM E-score
1,ACTCTCGC,-0.0613
2,AGGAACGA,-0.0861
3,CCGACTGC,-0.00603
4,ACTCAGCT,0.0516
5,ATCTGCAA,-0.0772
6,ACTGCGGA,0.0413
7,ACCGCGCT,-0.16
8,GATCGGGC,-0.0011
9,CCACGAGC,-0.156
10,ACTTTTAA,0.164
11,AGTTTCCC,0.0318
12,CGCGAAGA,0.141
13,AAAGCCAA,0.065
14,CCTGTAAA,-0.226
15,CCCTGAAA,0.181
16,AGATATGG,0.0956
17,CCGCTTCA,0.0476
18,AGAGAGAT,0.0429
19,GGCCCGAA,0.0586
20,ATGGGTTA,0.0717
21,AGACCCAC,0.0707
22,ATTTTAGA,0.179
23,GGTCCAAA,-0.153
24,GCAGACAA,-0.0114
25,AGCACGCC,-0.00482

row,Sequence,PBM E-score
1,AGGAGGTA,-0.0657
2,CAGACTTC,-0.0901
3,ACTGAAGG,-0.0931
4,AAACCTGA,0.207
5,GCGCTTGA,0.0828
6,CTAGGTGA,-0.246
7,ACGCACGC,0.00812
8,CGTAGCCA,-0.125
9,CAGTGCAG,-0.189
10,AGATCGTA,-0.28
11,ATGGTAAT,0.039
12,AACCATGG,-0.0682
13,AGCCACGG,-0.208
14,CGTACCAG,-0.125
15,AGCCGTCA,-0.106
16,TTGGACAA,0.0947
17,ATGTACAT,-0.125
18,CCAGAGGG,-0.183
19,ATCTTTGG,-0.00405
20,GATCCTAA,-0.0939
21,CTCAACAA,0.0404
22,ATTCGAGG,-0.0102
23,CTTGGTAA,-0.108
24,CGGTTGGC,0.0188
25,GGCAGAAC,0.11

row,Sequence,PBM E-score
1,GAATCGTC,-0.0848
2,AATATAAA,0.306
3,AGTCTAGC,-0.223
4,GACATCCC,0.109
5,ATATTACA,0.2
6,CCACATAA,-0.0066
7,CGGCGCAA,0.0162
8,TAATATTA,0.111
9,CCTCTCGC,-0.00841
10,ATCGCAAT,0.179
11,CTCACTTC,-0.229
12,GATTTGGC,-0.0157
13,ATGCCCGA,-0.0725
14,AGCATAGA,-0.0405
15,ACGTCACT,-0.0232
16,CACAAGCC,-0.2
17,CGACGATC,0.0524
18,CCCATTTA,0.166
19,CGCGACAA,0.174
20,AGCCACAT,-0.0125
21,AACAGTGT,0.126
22,GAAGTCTC,-0.224
23,CGGAAACA,0.209
24,GATACACC,0.187
25,AGGCCGGA,-0.104

row,Sequence,PBM E-score
1,ACGAACGT,-0.0934
2,CATAGACG,0.09
3,ATGATCAT,0.234
4,CGAGGGCC,0.0219
5,AAAGGAGG,-0.212
6,CAATAATC,0.0713
7,ATGGGGTC,-0.0801
8,TGAGGTAA,0.128
9,CGTAAACC,-0.0542
10,GCTTAAGC,-0.174
11,CTCGGATA,0.0482
12,CGTCAAGA,0.0127
13,TAGACCTA,-0.185
14,CTTCTTTC,0.0898
15,GCGCGAGA,-0.0415
16,GCCCCGGC,0.032
17,CGGTCCAC,-0.195
18,AAGAGCCG,-0.121
19,GGGCACGA,-0.0444
20,GACTTATC,0.00177
21,CACTTGAC,-0.0688
22,AGCTACTA,-0.0121
23,ACCAGTCC,-0.168
24,ACTTTTTG,0.237
25,GTACTACA,0.105

row,Sequence,PBM E-score
1,TAGAATGA,0.0492
2,GCCGCGAC,-0.025
3,AATCATCG,0.00961
4,GGGCGACA,-0.0634
5,ATCCCGAG,-0.101
6,ATTAGGCC,-0.0539
7,GAGGAATA,0.161
8,CATGTTAA,0.162
9,CTAGAGCA,-0.16
10,ATCTACTC,0.141
11,GTACAGGA,0.00908
12,ACTGTAAT,0.128
13,ACGCCGTG,0.06
14,ATTCTCAC,0.139
15,ATCGGAGG,-0.172
16,ACATGCGG,-0.00547
17,AGTGGAGG,-0.0716
18,GCTATGCA,-0.0367
19,CGGTTGAA,0.0517
20,AGAGACGC,-0.107
21,CTGTGCTA,-0.0469
22,AAACTCAC,0.146
23,ACGACTGC,-0.173
24,GAGCCACA,-0.0781
25,ATAGATTG,0.172

row,Sequence,PBM E-score
1,CGCCAAAG,-0.108
2,ATGTGACA,0.24
3,CGTAGGTA,-0.181
4,CCCAATCA,-0.0149
5,GCCTTGTA,-0.134
6,CTATCGCA,-0.0857
7,CGCAGAAG,-0.0903
8,ATACCGGA,-0.15
9,AGGCCGGG,-0.174
10,AGATCTCC,0.0438
11,GGGTCGAA,0.0113
12,CAAGTGCG,-0.143
13,CGAATACC,0.121
14,AGATCCAA,-0.0504
15,TCGCGCGA,0.0251
16,AGAACTAG,-0.111
17,ATTGATCC,0.00951
18,TAACGTTA,0.119
19,GAACATGA,0.0383
20,CCGCTTAC,-0.134
21,CGAAATTA,0.206
22,GTGGCAGA,-0.108
23,ATGTGCCG,-0.222
24,ACAAGAAG,0.0468
25,ATAAGAGG,0.0318

row,Sequence,PBM E-score
1,CATCCCGG,-0.11
2,ACCTGTAG,-0.136
3,ATCGATTG,0.119
4,AACGCCAG,0.0937
5,GCAAGGGC,-0.188
6,CCGGCACC,0.0568
7,CTTATGCC,0.128
8,CACGCGCG,-0.0391
9,TTGCCAAA,0.111
10,AACCCTGA,0.305
11,TACAAACA,0.21
12,CATGCCTA,-0.0489
13,CCCTCGCC,0.0165
14,AGGCCGTC,-0.114
15,CGCCCAGC,0.0194
16,GAGTACCC,-0.155
17,AGCTGGGA,-0.0199
18,CACAGCCA,-0.0226
19,GCGTAGGA,-0.137
20,CTGAACAC,0.132
21,AGCCATCC,-0.0935
22,AGGTATAG,0.146
